Data: PubChem BioAssay AID504706 (National Center for Advancing Translational Sciences (NCATS), 2011)
Out of some 320,000 compounds screened, about 200 (0.062%) were called active. This list was built around the results that the source calls inconclusive (neither active nor inactive); the mix of calls is not that of the screen. The call rests on the fitted dose curve; in most records, active means well fitted activation curve with a large enough effect; inconclusive means small, poorly fitted or top-dose-only effect; inactive means no such curve, though single readings can be large or run the other way. No potency is given beside an inconclusive call; the fits are too rough.

Experiment: qHTS assay for re-activators of p53 using a Luc reporter; further: nearly all actives have a fitted effect of over 45% in size
Conditions: H1299 p53-A138V BP100-luciferase reporter, luminescence, 24 h; series mostly up to 92.2 µM
Outline: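 p53-null H1299 cells stably carrying temperature-sensitive p53-A138V and a BP100-luciferase reporter were pinned with compounds (4-point, 1:5 series) and held 24 hrs at 37 deg C. Luminescence was read 10 min after detection reagent.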
Potency means the concentration at half of the fitted maximal effect; tags describe the fitted curve by direction and shape.

Question: With `C=CCN=Cc1sc2ccc(OCC)cc2c1O` as the compound, how does the Potency read?
Answer: inconclusive [activator, partial curve, poor fit]

Question: With `CN(C)c1ccc(N/C=C/C(=O)C(C)(C)C)cc1` as the compound, how does the Potency read?
Answer: inconclusive [activator, partial curve, poor fit]

Question: Which Potency does the source give for `CC(=O)NC(c1ccco1)c1ccc2cccnc2c1O` (centres undefined) here?
Answer: inconclusive [activator, partial curve, poor fit]

Question: With `O=C(CCSc1nc(-c2ccc3c(c2)OCO3)cc(C(F)(F)F)n1)NCc1ccccc1` as the compound, how does the Potency read?
Answer: inactive

Question: For `Cc1ccc(-c2nc(-c3ccncc3)no2)cc1`, which Potency is on record?
Answer: inconclusive [activator, full curve, poor fit]

Question: With `COc1ccccc1/C=C/C=N/NC(=O)Cc1cccs1` as the compound, how does the Potency read?
Answer: inconclusive [activator, single point]

Question: With `CCc1sc(C(=O)N2CCc3ccccc32)cc1C` as the compound, how does the Potency read?
Answer: inactive

Question: With `COc1ccc(S(=O)(=O)N2Cc3ccccc3CC2C(=O)O)cc1OC` (centres undefined) as the compound, how does the Potency read?
Answer: inactive

Question: Which Potency does the source give for `COc1ccc(N2CCN(C(=O)CC(C)S(=O)(=O)c3ccc4c(c3)NC(=O)CO4)CC2)cc1` (centres undefined) here?
Answer: inactive

Question: With `C/C(=N\NC(=O)c1cc(-c2cccnc2)nc2ccccc12)c1ccc(O)cc1O` as the compound, how does the Potency read?
Answer: inconclusive [activator, partial curve, poor fit]

Question: With `Cc1csc2nc(CCNS(=O)(=O)c3cccs3)cn12` as the compound, how does the Potency read?
Answer: inconclusive [activator, partial curve, poor fit]

Question: For `Cc1c(Cl)c(C(=O)N2CCCCCC2)nn1C`, which Potency is on record?
Answer: inactive

Question: For `CCOC(=O)/C(=N/Nc1ccc(C)cc1)S(=O)(=O)c1ccc(Cl)cc1`, which Potency is on record?
Answer: inconclusive [activator, partial curve, poor fit]

Question: Which Potency does the source give for `COC(=O)c1ccc(/C(O)=C(\C#N)c2nc3ccccc3s2)cc1` here?
Answer: inconclusive [activator, partial curve, poor fit]

Question: With `CCCn1nnc(NC(=O)c2ccc(OC)cc2)n1` as the compound, how does the Potency read?
Answer: inactive

Question: With `COc1ccc(-c2nc(-c3ccccc3OC)no2)cc1OC` as the compound, how does the Potency read?
Answer: inconclusive [activator, partial curve, poor fit]

Question: Which Potency does the source give for `O=C(COc1ccc(Br)cc1)c1ccc2c(c1)CCCC2` here?
Answer: inactive

Question: For `CCOc1ccc2nc(/N=C/c3c(C)[nH]n(-c4ccccc4)c3=O)sc2c1`, which Potency is on record?
Answer: inactive

Question: For `COC(=O)c1ccc(-c2c(-c3ccccc3)ncc3cc(F)ccc23)cc1`, which Potency is on record?
Answer: inconclusive [activator, partial curve, poor fit]

Question: For `CCOc1ccc(CN2C(=O)c3ccccc3C2=O)cc1C(=O)N1CCC(C(N)=O)CC1`, which Potency is on record?
Answer: inconclusive [activator, single point]

Question: For `C=CCc1c(C)nc(SC)nc1Nc1ccc(C(C)=O)cc1`, which Potency is on record?
Answer: inconclusive [activator, single point]

Question: Which Potency does the source give for `c1cc2c(cc1CNc1ccc(N3CCOCC3)cc1)OCO2` here?
Answer: inconclusive [activator, full curve, poor fit]

Question: With `CC(C)C(NC(=O)CSc1ccc(Cl)cc1)C(C)C` as the compound, how does the Potency read?
Answer: inactive

Question: Which Potency does the source give for `O=C(c1cc2ccccc2oc1=O)N(Cc1cccs1)C1CCS(=O)(=O)C1` (centres undefined) here?
Answer: inconclusive [activator, partial curve, poor fit]

Question: For `CCCCCc1cc(=O)oc2c(C(CCN3CCCC3)c3ccc(N(C)C)cc3)c(OC)cc(OC)c12` (centres undefined), which Potency is on record?
Answer: inactive

Question: With `Cc1c(/C=C/C(=O)c2ccccc2)cnn1C` as the compound, how does the Potency read?
Answer: inconclusive [activator, full curve, poor fit]

Question: With `C=CCn1c(COc2ccc(OC)cc2)nc2ccccc21` as the compound, how does the Potency read?
Answer: inactive

Question: Which Potency does the source give for `CCCCN1C(=O)C(=O)N(c2ccccc2)C1=S` here?
Answer: inconclusive [activator, partial curve, poor fit]

Question: For `COc1ccc(C(=O)NCC(=O)c2ccccc2)cc1`, which Potency is on record?
Answer: inactive

Question: Which Potency does the source give for `O=C(COc1ccccc1)NNc1nc2ccccc2s1` here?
Answer: inactive

Question: For `CC(=O)N1N=C(c2ccc(Cl)cc2)OC1c1ccc(C(C)C)cc1` (centres undefined), which Potency is on record?
Answer: inactive

Question: With `COc1ccc(-c2cc(C(F)F)n3ncc(C(=O)N4CCN(C)CC4)c3n2)cc1` as the compound, how does the Potency read?
Answer: inactive

Question: With `O=C(NCc1ccco1)c1cc(-c2ccc(Cl)cc2)on1` as the compound, how does the Potency read?
Answer: inactive

Question: Which Potency does the source give for `COc1ccc(Cc2nc3ccc(C(=O)N4CCCC4)cc3o2)cc1` here?
Answer: inconclusive [activator, full curve, poor fit]

Question: With `CN(C)c1ccc(C(=S)NCc2ccco2)cc1` as the compound, how does the Potency read?
Answer: inactive

Question: Which Potency does the source give for `CC(=O)c1c(N2CCOCC2)nc(=S)n(Cc2ccccc2)c1C` here?
Answer: inconclusive [activator, single point]

Question: With `Cc1cccc(Nc2nnc(SCC(=O)c3ccc(O)cc3O)s2)c1` as the compound, how does the Potency read?
Answer: inactive

Question: With `CC1(C)Cc2c(sc(NC(=O)c3ccc(Br)o3)c2C#N)CO1` as the compound, how does the Potency read?
Answer: inconclusive [activator, full curve, poor fit]

Question: Which Potency does the source give for `Cc1ccc(CN=Cc2[nH]c3ccc(Br)c(Cl)c3c2O)cc1` here?
Answer: inactive

Question: With `COc1ccc(CNC(=O)CCS(=O)(=O)c2cc3c(cc2Cl)NC(=O)CO3)cc1` as the compound, how does the Potency read?
Answer: inactive

Question: For `Clc1ccccc1CSc1snnc1-c1ccccc1`, which Potency is on record?
Answer: inconclusive [activator, partial curve, poor fit]

Question: For `Cc1cc(C)nc(N2CCCC(C(=O)NCCc3ccc(F)cc3)C2)n1` (centres undefined), which Potency is on record?
Answer: inactive

Question: With `O=C(N=Nc1c(O)[nH]c2ccccc12)c1cccs1` as the compound, how does the Potency read?
Answer: inconclusive [activator, partial curve, poor fit]

Question: With `Oc1cccc(/C=N/Nc2cc(N3CCCC3)nc(N3CCCC3)n2)c1` as the compound, how does the Potency read?
Answer: inactive

Question: With `COc1ccc(-c2cc3nc4c(c(=O)n3[nH]2)CCC4)cc1` as the compound, how does the Potency read?
Answer: inconclusive [activator, partial curve, poor fit]

Question: With `N#Cc1c(/N=C/c2cccs2)sc2c1CCCCC2` as the compound, how does the Potency read?
Answer: inconclusive [activator, partial curve, poor fit]

Question: Which Potency does the source give for `N#CCC(=O)Nc1ccc(C(=O)OCc2ccccc2Oc2ccccc2)cc1` here?
Answer: inactive

Question: Which Potency does the source give for `COC(=O)CCn1nnc(-c2ccc(C(C)C)cc2)n1` here?
Answer: inactive

Question: Which Potency does the source give for `O=C(Cc1ccccc1)N/N=C/c1ccc(OC(=O)/C=C\c2ccco2)cc1` here?
Answer: inconclusive [activator, partial curve, poor fit]
